Starred links: 1 amine or outer side, 2 acyl side, 3 side chain; linkers in the order of their positions; H or OH if unused. Non-standard residues stand in square brackets, D forms with d. Residues, ends and D or L forms follow the SMILES beside them. *: point of attachment. Pro(3R,4S-CMe2) = CC1(C)[C@@H]2[C@@H](C(=O)O)NC[C@@H]21; X1 = O=S(=O)(CC1(N*)CCCCC1)c1ccccc1; X2 = O=C(C(=O)[*:2])C(CC1CC1)N[*:1]; Phg = N[C@H](C(=O)O)c1ccccc1; Tle = CC(C)(C)[C@H](N)C(=O)O; X4 = CS(=O)(=O)CC1(N*)CCCCC1; CO = O=C([*:1])[*:2]
These compounds were tested against Recombinant heterodimeric HCV NS3/NS4A protease (strain 1a) (Hepatitis C virus genotype 1a, UniProt P27958) (assay: Spectrophotometric assay for HCV serine protease inhibitory activity (chromogenic ester substrates)). Conditions: Table 3, sulfone compounds; HCV serine protease; read-out: Ki* range.
Assay type: biochemical

Row | SMILES | Ki [nM]
1 | C#CCCCC(NC(=O)[C@@H]1[C@@H]2[C@H](CN1C(=O)[C@@H](NC(=O)NC1(CS(=O)(=O)c3ccccc3)CCCCC1)C(C)(C)C)C2(C)C)C(=O)C(=O)NCC=C (stereo partly shown) [Compound 172] | 75 to 250
2 | C#CCCNC(=O)C(=O)C(CCCC)NC(=O)[C@@H]1[C@@H]2[C@H](CN1C(=O)[C@@H](NC(=O)NC1(CS(=O)(=O)c3ccccc3)CCCCC1)C(C)(C)C)C2(C)C (stereo partly shown) [Compound 173] | < 75
3 | CC(C)(C)[C@H](NC(=O)N[C@H](CS(=O)(=O)C(C)(C)C)C(C)(C)C)C(=O)N1C[C@H]2[C@@H]([C@H]1C(=O)NC(CC1CC1)C(=O)C(N)=O)C2(C)C (stereo partly shown) [Compound 174] | < 75
4 | CC(C)(C)[C@H](NC(=O)N[C@H](CS(=O)(=O)C(C)(C)C)C1CCCCC1)C(=O)N1C[C@H]2[C@@H]([C@H]1C(=O)NC(CC1CC1)C(=O)C(N)=O)C2(C)C (stereo partly shown) [Compound 175] | < 75
5 | CC(C)(C)[C@H](NC(=O)N[C@H](CS(=O)(=O)C(C)(C)C)C(C)(C)C)C(=O)N1C[C@H]2[C@@H]([C@H]1C(=O)NC(CC1CCC1)C(=O)C(N)=O)C2(C)C (stereo partly shown) [Compound 176] | < 75
6 | CC(C)(C)[C@H](NC(=O)N[C@H](CS(=O)(=O)C(C)(C)C)C1CCCCC1)C(=O)N1C[C@H]2[C@@H]([C@H]1C(=O)NC(CC1CCC1)C(=O)C(N)=O)C2(C)C (stereo partly shown) [Compound 177] | < 75
7 | C#CCCC(NC(=O)[C@@H]1[C@@H]2[C@H](CN1C(=O)[C@@H](NC(=O)NC1(CS(=O)(=O)c3ccccc3)CCCCC1)C(C)(C)C)C2(C)C)C(=O)C(=O)NCC#C (stereo partly shown) [Compound 179] | < 75
8 | C=CCNC(=O)C(=O)C(CCC(F)(F)F)NC(=O)[C@@H]1[C@@H]2[C@H](CN1C(=O)[C@@H](NC(=O)NC1(CS(=O)(=O)c3ccccc3)CCCCC1)C(C)(C)C)C2(C)C (stereo partly shown) [Compound 180] | < 75
9 | C#CCCC(NC(=O)[C@@H]1[C@@H]2[C@H](CN1C(=O)[C@@H](NC(=O)NC1(CS(=O)(=O)c3ccccc3)CCCCC1)C(C)(C)C)C2(C)C)C(=O)C(=O)NCC=C (stereo partly shown) [Compound 181] | < 75
10 | C#CCCNC(=O)C(=O)C(CCC#C)NC(=O)[C@@H]1[C@@H]2[C@H](CN1C(=O)[C@@H](NC(=O)NC1(CS(=O)(=O)c3ccccc3)CCCCC1)C(C)(C)C)C2(C)C (stereo partly shown) [Compound 182] | < 75
11 | C#CCCNC(=O)C(=O)C(CCC#C)NC(=O)[C@@H]1[C@@H]2[C@H](CN1C(=O)[C@@H](NC(=O)NC1(CS(C)(=O)=O)CCCCC1)C(C)(C)C)C2(C)C (stereo partly shown) [Compound 183] | < 75
12 | C#CCCC(NC(=O)[C@@H]1[C@@H]2[C@H](CN1C(=O)[C@@H](NC(=O)NC1(CS(C)(=O)=O)CCCCC1)C(C)(C)C)C2(C)C)C(=O)C(=O)NCC#C (stereo partly shown) [Compound 184] | < 75
13 | C#CCCC(NC(=O)[C@@H]1[C@@H]2[C@H](CN1C(=O)[C@@H](NC(=O)NC1(CS(C)(=O)=O)CCCCC1)C(C)(C)C)C2(C)C)C(=O)C(=O)NCC=C (stereo partly shown) [Compound 185] | < 75
14 | CC(C)(C)[C@H](NC(=O)NC1(CCS(=O)(=O)c2ccccc2)CCCCC1)C(=O)N1C[C@H]2[C@@H]([C@H]1C(=O)NC(CC1CC1)C(=O)C(N)=O)C2(C)C (stereo partly shown) [Compound 186] | < 75
15 | CN(C)C(=O)[C@@H](NC(=O)CNC(=O)C(=O)C(CC1CC1)NC(=O)[C@@H]1[C@@H]2[C@H](CN1C(=O)[C@@H](NC(=O)NC1(CS(C)(=O)=O)CCCCC1)C(C)(C)C)C2(C)C)c1ccccc1 (stereo partly drawn) [Compound 187] ({X4-CO}-[Tle][Pro(3R,4S-CMe2)][X2]G[Phg]-NMe2) | < 75
16 | CN(C)C(=O)[C@@H](NC(=O)CNC(=O)C(=O)C(CC1CC1)NC(=O)[C@@H]1[C@@H]2[C@H](CN1C(=O)[C@@H](NC(=O)NC1(CS(=O)(=O)c3ccccc3)CCCCC1)C(C)(C)C)C2(C)C)c1ccccc1 (stereo partly drawn) [Compound 188] ({X1-CO}-[Tle][Pro(3R,4S-CMe2)][X2]G[Phg]-NMe2) | < 75
17 | C#CCCNC(=O)C(=O)C(CCC)NC(=O)[C@@H]1[C@@H]2[C@H](CN1C(=O)[C@@H](NC(=O)NC1(CS(=O)(=O)c3ccccc3)CCCCC1)C(C)(C)C)C2(C)C (stereo partly shown) [Compound 189] | < 75
18 | CC(C)(C)[C@H](NC(=O)NC1(CS(=O)(=O)Cc2ccccc2)CCCCC1)C(=O)N1C[C@H]2[C@@H]([C@H]1C(=O)NC(CC1CC1)C(=O)C(N)=O)C2(C)C (stereo partly shown) [Compound 190] | < 75
19 | C#CCCC(NC(=O)[C@@H]1[C@@H]2[C@H](CN1C(=O)[C@@H](NC(=O)NC1(CS(=O)(=O)Cc3ccccc3)CCCCC1)C(C)(C)C)C2(C)C)C(=O)C(=O)NCC=C (stereo partly shown) [Compound 191] | < 75
20 | C#CCCNC(=O)C(=O)C(CCC#C)NC(=O)[C@@H]1[C@@H]2[C@H](CN1C(=O)[C@@H](NC(=O)NC1(CS(=O)(=O)Cc3ccccc3)CCCCC1)C(C)(C)C)C2(C)C (stereo partly shown) [Compound 192] | < 75
21 | CC(C)CC(C)(CS(=O)(=O)C(C)(C)C)NC(=O)N[C@H](C(=O)N1C[C@H]2[C@@H]([C@H]1C(=O)NC(CC1CCC1)C(=O)C(N)=O)C2(C)C)C(C)(C)C (stereo partly shown) [Compound 193] | < 75
22 | CC(C)CC(C)(CS(=O)(=O)C(C)(C)C)NC(=O)N[C@H](C(=O)N1C[C@H]2[C@@H]([C@H]1C(=O)NC(CC1CC1)C(=O)C(N)=O)C2(C)C)C(C)(C)C (stereo partly shown) [Compound 194] | < 75
23 | CC(C)CC(C)(CS(=O)(=O)Cc1ccccc1)NC(=O)N[C@H](C(=O)N1C[C@H]2[C@@H]([C@H]1C(=O)NC(CC1CC1)C(=O)C(N)=O)C2(C)C)C(C)(C)C (stereo partly shown) [Compound 195] | < 75

Row | SMILES | Ki [nM]
24 | CC(C)CC(C)(CS(=O)(=O)Cc1ccccc1)NC(=O)N[C@H](C(=O)N1C[C@H]2[C@@H]([C@H]1C(=O)NC(CC1CCC1)C(=O)C(N)=O)C2(C)C)C(C)(C)C (stereo partly shown) [Compound 196] | < 75
25 | CC(C)(C)[C@H](NC(=O)NC1(CCS(C)(=O)=O)CCCCC1)C(=O)N1C[C@H]2[C@@H]([C@H]1C(=O)NC(CC1CC1)C(=O)C(N)=O)C2(C)C (stereo partly shown) [Compound 197] | < 75
26 | CC(C)(C)[C@H](NC(=O)NC1(CS(=O)(=O)c2cccc(OCc3ccccc3)c2)CCCCC1)C(=O)N1C[C@H]2[C@@H]([C@H]1C(=O)NC(CC1CC1)C(=O)C(N)=O)C2(C)C (stereo partly shown) [Compound 198] | < 75
27 | CC(C)(C)[C@H](NC(=O)NC1(CS(=O)(=O)c2cccc(O)c2)CCCCC1)C(=O)N1C[C@H]2[C@@H]([C@H]1C(=O)NC(CC1CC1)C(=O)C(N)=O)C2(C)C (stereo partly shown) [Compound 199] | < 75
28 | C=CCNC(=O)C(=O)C(CC1CC1)NC(=O)[C@@H]1[C@@H]2[C@H](CN1C(=O)[C@@H](NC(=O)NC1(CS(=O)(=O)c3ccccc3)CCCCC1)C(C)(C)C)C2(C)C (stereo partly shown) [Compound 200] | < 75
29 | C=CCNC(=O)C(=O)C(CC1CC1)NC(=O)[C@@H]1[C@@H]2[C@H](CN1C(=O)[C@@H](NC(=O)NC1(CS(C)(=O)=O)CCCCC1)C(C)(C)C)C2(C)C (stereo partly shown) [Compound 201] | < 75
30 | CCS(=O)(=O)CC1(NC(=O)N[C@H](C(=O)N2C[C@H]3[C@@H]([C@H]2C(=O)NC(CC2CC2)C(=O)C(N)=O)C3(C)C)C(C)(C)C)CCCCC1 (stereo partly shown) [Compound 202] | < 75
31 | CC(C)(C)[C@H](NC(=O)NC1(CS(=O)(=O)C(C)(C)C)CCCCC1)C(=O)N1C[C@H]2[C@@H]([C@H]1C(=O)NC(CC1CC1)C(=O)C(N)=O)C2(C)C (stereo partly shown) [Compound 203] | < 75
32 | C=CCNC(=O)C(=O)C(CC1CC1)NC(=O)[C@@H]1[C@@H]2[C@H](CN1C(=O)[C@@H](NC(=O)NC1(CS(=O)(=O)CC)CCCCC1)C(C)(C)C)C2(C)C (stereo partly shown) [Compound 204] | < 75
33 | C=CCNC(=O)C(=O)C(CC1CC1)NC(=O)[C@@H]1[C@@H]2[C@H](CN1C(=O)[C@@H](NC(=O)NC1(CS(=O)(=O)C(C)(C)C)CCCCC1)C(C)(C)C)C2(C)C (stereo partly shown) [Compound 205] | < 75
34 | C#CCCC(NC(=O)[C@@H]1[C@@H]2[C@H](CN1C(=O)[C@@H](NC(=O)NC1(CS(=O)(=O)CC)CCCCC1)C(C)(C)C)C2(C)C)C(=O)C(=O)NCC=C (stereo partly shown) [Compound 206] | < 75
35 | CC(C)(C)[C@H](NC(=O)NC1(CS(C)(=O)=O)CCCCC1)C(=O)N1C[C@H]2[C@@H]([C@H]1C(=O)NC(CC1CC1)C(=O)C(N)=O)C21CC1 (stereo partly shown) [Compound 207] | < 75
36 | C#CCCCNC(=O)C(=O)C(CCC#C)NC(=O)[C@@H]1[C@@H]2[C@H](CN1C(=O)[C@@H](NC(=O)NC1(CS(C)(=O)=O)CCCCC1)C(C)(C)C)C2(C)C (stereo partly shown) [Compound 209] | < 75
37 | C#CCCC(NC(=O)[C@@H]1[C@@H]2[C@H](CN1C(=O)[C@@H](NC(=O)NC1(CS(=O)(=O)C(C)(C)C)CCCCC1)C(C)(C)C)C2(C)C)C(=O)C(=O)NCC=C (stereo partly shown) [Compound 210] | < 75
38 | C=CCNC(=O)C(=O)C(CCC)NC(=O)[C@@H]1[C@@H]2[C@H](CN1C(=O)[C@@H](NC(=O)NC1(CS(C)(=O)=O)CCCCC1)C(C)(C)C)C2(C)C (stereo partly shown) [Compound 211] | < 75
39 | CC(C)(C)[C@H](NC(=O)NC1(CS(C)(=O)=O)CCCCC1)C(=O)N1C[C@H]2[C@@H]([C@H]1C(=O)NC(CC1CCC1)C(=O)C(N)=O)C2(C)C (stereo partly shown) [Compound 212] | < 75
40 | CC(C)(C)[C@H](NC(=O)NC1(CS(C)(=O)=O)CCCCC1)C(=O)N1C[C@H]2[C@@H]([C@H]1C(=O)NC(CC1CC1)C(=O)C(N)=O)C21CCCC1 (stereo partly shown) [Compound 213] | < 75
41 | CC(C)(C)[C@H](NC(=O)NC1(CS(=O)(=O)c2ccccc2)CCCCC1)C(=O)N1C[C@H]2[C@@H]([C@H]1C(=O)NC(CC1CCC1)C(=O)C(N)=O)C2(C)C (stereo partly shown) [Compound 214] | < 75
42 | C=CCNC(=O)C(=O)C(CC1CCC1)NC(=O)[C@@H]1[C@@H]2[C@H](CN1C(=O)[C@@H](NC(=O)NC1(CS(C)(=O)=O)CCCCC1)C(C)(C)C)C2(C)C (stereo partly shown) [Compound 215] | < 75
43 | C=CCNC(=O)C(=O)C(CC1CCC1)NC(=O)[C@@H]1[C@@H]2[C@H](CN1C(=O)[C@@H](NC(=O)NC1(CS(=O)(=O)C(C)(C)C)CCCCC1)C(C)(C)C)C2(C)C (stereo partly shown) [Compound 216] | < 75
44 | C=CCNC(=O)C(=O)C(CCC)NC(=O)[C@@H]1[C@@H]2C[C@H](CN1C(=O)[C@@H](NC(=O)NC1(CS(C)(=O)=O)CCCCC1)C(C)(C)C)C2(C)C (stereo partly shown) [Compound 217] | < 75
45 | CC1(C)C[C@H]2[C@H](CN(C(=O)[C@@H](NC(=O)NC3(CS(C)(=O)=O)CCCCC3)C3CCCCC3)[C@@H]2C(=O)NC(CC2CC2)C(=O)C(N)=O)O1 (stereo partly shown) [Compound 218] | < 75
46 | C[C@@]1(CN=[N+]=[N-])C[C@H]2[C@H](CN(C(=O)[C@@H](NC(=O)NC3(CS(C)(=O)=O)CCCCC3)C3CCCCC3)[C@@H]2C(=O)NC(CC2CC2)C(=O)C(N)=O)O1 (stereo partly shown) [Compound 219] | < 75

Reference: patent publication US8067379B2, “Sulfur compounds as inhibitors of hepatitis C virus NS3 serine protease” (Schering Corporation, priority 2004, dated 2011)
